In the supplement of paper PMC3334620:
The full ranking holds about 33,000 sequences; the median of “E-score (-0.5 to 0.5)” is about -0.012, and the highest 2% start at about 0.27. The list shows a part of the results.

target: T1, Vhr1 (UniProt P40522); test: PBM E-score (8-mer binding enrichment) (E-score (-0.5 to 0.5)); higher = stronger / more preferred TF binding; most listed sequences are background and not binding sites; conditions: protein concentration: 200 nM; construct: GST-full length
T1 sequence: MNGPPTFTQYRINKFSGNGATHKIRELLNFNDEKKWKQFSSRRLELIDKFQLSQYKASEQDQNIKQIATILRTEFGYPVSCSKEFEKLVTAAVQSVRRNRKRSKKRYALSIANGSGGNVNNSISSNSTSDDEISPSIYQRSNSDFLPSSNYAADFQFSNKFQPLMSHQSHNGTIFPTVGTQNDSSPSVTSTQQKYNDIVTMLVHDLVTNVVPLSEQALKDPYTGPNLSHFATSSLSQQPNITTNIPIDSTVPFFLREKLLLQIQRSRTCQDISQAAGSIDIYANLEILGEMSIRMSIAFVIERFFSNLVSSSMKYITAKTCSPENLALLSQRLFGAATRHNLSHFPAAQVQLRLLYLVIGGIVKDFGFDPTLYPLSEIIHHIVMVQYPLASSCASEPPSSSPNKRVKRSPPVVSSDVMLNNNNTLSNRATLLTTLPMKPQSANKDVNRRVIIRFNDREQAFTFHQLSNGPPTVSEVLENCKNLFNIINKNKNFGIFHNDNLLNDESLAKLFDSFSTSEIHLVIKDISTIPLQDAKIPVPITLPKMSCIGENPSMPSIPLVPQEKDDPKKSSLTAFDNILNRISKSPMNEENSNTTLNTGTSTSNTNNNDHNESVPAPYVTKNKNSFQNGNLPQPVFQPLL
Procedure, shortened: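 Masliner-normalised scans of fluorescent anti-GST signal were the basis for scoring. That signal came from GST-tagged yeast transcription factors applied at about 100-200 nM to double-stranded universal all-10-mer Agilent arrays on fresh or once-stripped slides. Each ungapped eight-base word, pooled with its reverse complement, received an E-score from the Universal PBM Analysis Suite.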

Going from ACGAAATG to CCGAGTGA, the “PBM E-score” value rises from 0.078 to 0.19.

First: GATACTCA
Second: GACTCGCC
The “PBM E-score” value of the first is lower: 0.265 for the first, 0.276 for the second.

Compared with ACTAGAGG, GGGAGCGA is higher in “PBM E-score” value: -0.0982 for the first, 0.0761 for the second.

First: GATCTAAA
Second: ATCACTCA
The “PBM E-score” value of the first is lower: -0.104 for the first, 0.234 for the second.

Going from CGCACACC to ACGGCTTA, the “PBM E-score” value falls from 0.186 to -0.00477.

First: AGACACGA
Second: ATCTACCG
The “PBM E-score” value of the first is lower: 0.0497 for the first, 0.0941 for the second.

Going from TGACTGAA to AACTAGAG, the “PBM E-score” value falls from 0.196 to -0.00407.

Compared with GGGATGCA, ACAATCTA is higher in “PBM E-score” value: -0.174 for the first, 0.0111 for the second.

Compared with CATCTGGG, GCTTAGCC is higher in “PBM E-score” value: -0.183 for the first, 0.00512 for the second.

Going from AGATTTAT to AACATAAA, the “PBM E-score” value falls from 0.0701 to 0.00715.

Compared with GGGGACGA, AATTACAA is higher in “PBM E-score” value: -0.0218 for the first, 0.0114 for the second.

Compared with TTAGGCAA, CCATACGG is higher in “PBM E-score” value: -0.193 for the first, -0.0355 for the second.

First: ACAACACG
Second: CGTAAAGA
The “PBM E-score” value of the first is higher: 0.0546 for the first, -0.289 for the second.

Going from CAGACCCA to CTGCTAGA, the “PBM E-score” value falls from 0.0519 to -0.122.

First: GATTGCGA
Second: CATATCAG
The “PBM E-score” value of the first is higher: 0.0903 for the first, -0.0382 for the second.

First: CGGTTGAC
Second: AGATTCTG
The “PBM E-score” value of the first is higher: -0.0106 for the first, -0.161 for the second.

First: CATACATC
Second: GGGTACCC
The “PBM E-score” value of the first is higher: 0.146 for the first, -0.122 for the second.

Compared with CAAAGCCA, AATACTGG is higher in “PBM E-score” value: 0.0186 for the first, 0.145 for the second.

Compared with CCCAGCAC, GCGTCCTA is higher in “PBM E-score” value: -0.0374 for the first, -0.0317 for the second.

Going from CCCGGCCG to CAACTTCG, the “PBM E-score” value falls from 0.0208 to 0.0147.

Compared with CTTCCTGA, AGCGTCCA is lower in “PBM E-score” value: 0.038 for the first, -0.286 for the second.

Compared with AATATTTG, CGCGGTGC is lower in “PBM E-score” value: 0.102 for the first, 0.0465 for the second.

Compared with AGGGGAGG, ATCCACAT is lower in “PBM E-score” value: 0.263 for the first, 0.0973 for the second.

Compared with AAACAGTG, CAAGCTAA is lower in “PBM E-score” value: 0.114 for the first, -0.0807 for the second.

First: ACGCCAGA
Second: AGACTCCG
The “PBM E-score” value of the first is lower: 0.0884 for the first, 0.225 for the second.

Going from CGATTGAC to ATACGGGA, the “PBM E-score” value rises from -0.0458 to -0.00269.

Compared with ACCCGACA, CCTATATA is higher in “PBM E-score” value: 0.0145 for the first, 0.0584 for the second.

First: AACCGTCC
Second: ATTAAGAG
The “PBM E-score” value of the first is lower: -0.107 for the first, -0.0917 for the second.

Compared with ACCAGCCC, GATGCCAC is lower in “PBM E-score” value: 0.168 for the first, -0.159 for the second.

Compared with AGTTTCGC, ACCTTAAC is lower in “PBM E-score” value: -0.0377 for the first, -0.135 for the second.

Compared with GGTGTATA, CATGTAGA is higher in “PBM E-score” value: -0.0925 for the first, 0.00603 for the second.

Going from GCTGGATA to ATCTGCAC, the “PBM E-score” value falls from 0.0633 to -0.141.

Going from GACTTTCC to AGACGATG, the “PBM E-score” value rises from -0.0868 to 0.0858.

First: CACCACAC
Second: CGTGACAG
The “PBM E-score” value of the first is higher: 0.0911 for the first, -0.046 for the second.

First: ATCCGACA
Second: AGCGCGGG
The “PBM E-score” value of the first is lower: 0.0761 for the first, 0.248 for the second.

Compared with CCGAAGCA, CAACATTG is higher in “PBM E-score” value: 0.0447 for the first, 0.162 for the second.

Compared with AACAGATA, ACCTATAA is lower in “PBM E-score” value: -0.0167 for the first, -0.0283 for the second.

First: CTGCTGTC
Second: ATCGAGTC
The “PBM E-score” value of the first is lower: 0.119 for the first, 0.248 for the second.

Going from ACCAGGCC to TAAATCGA, the “PBM E-score” value rises from -0.0551 to -0.0427.

Going from CAGTGGGG to GAGGAAAC, the “PBM E-score” value rises from -0.168 to -0.0889.

First: CCCGCTAA
Second: GATGCCTA
The “PBM E-score” value of the first is higher: -0.0681 for the first, -0.169 for the second.

First: GCGGTGCC
Second: GACTTACA
The “PBM E-score” value of the first is higher: 0.0693 for the first, -0.0564 for the second.

Compared with CACTAGTA, TTCATCAA is higher in “PBM E-score” value: -0.0153 for the first, 0.0812 for the second.

First: TATTCTAA
Second: TAGCATGA
The “PBM E-score” value of the first is lower: -0.0256 for the first, 0.209 for the second.

First: CGATCGAC
Second: ATTCAATA
The “PBM E-score” value of the first is lower: -0.118 for the first, -0.0197 for the second.

First: ACAGGAAT
Second: GCGGCTAA
The “PBM E-score” value of the first is lower: -0.0744 for the first, -0.0238 for the second.

First: GACCAGGA
Second: TGGGTGAA
The “PBM E-score” value of the first is lower: -0.0188 for the first, 0.23 for the second.

Compared with CACCTGAG, CGAATATC is lower in “PBM E-score” value: -0.0144 for the first, -0.12 for the second.

Compared with AGGATAAG, AGGTAAGA is lower in “PBM E-score” value: -0.0484 for the first, -0.114 for the second.

First: CTAGCGAG
Second: ATCAACAT
The “PBM E-score” value of the first is lower: -0.151 for the first, 0.162 for the second.

Going from CCAGTCCC to TGCCTCCA, the “PBM E-score” value falls from -0.0506 to -0.263.

Compared with CAGCGTGC, ATTTTCAC is lower in “PBM E-score” value: 0.139 for the first, 0.0314 for the second.

Going from AACCAATG to AATTATAG, the “PBM E-score” value falls from 0.209 to 0.0858.

Going from GCGTATGA to AAGCCAAC, the “PBM E-score” value falls from 0.0514 to -0.0924.

Compared with ATCAGTAC, CAGACCCG is higher in “PBM E-score” value: 0.126 for the first, 0.203 for the second.

Compared with ACGGGCAA, CTACTATC is higher in “PBM E-score” value: -0.126 for the first, 0.277 for the second.

First: CAATTCAG
Second: GTCTAAAC
The “PBM E-score” value of the first is lower: -0.00259 for the first, 0.00959 for the second.

Going from TTCGTCAA to AAGAACGT, the “PBM E-score” value rises from 0.0712 to 0.101.

Compared with CCCCATGC, ATCACCTA is higher in “PBM E-score” value: -0.0398 for the first, 0.121 for the second.

Compared with TAAACAGA, CTCAAGCA is lower in “PBM E-score” value: 0.017 for the first, -0.124 for the second.

Compared with AATCATGC, CATTCTGC is lower in “PBM E-score” value: 0.304 for the first, -0.0605 for the second.

Going from GAGGATCC to GTCTCGTA, the “PBM E-score” value falls from -0.0377 to -0.123.

Going from ACACATGC to CACGACGA, the “PBM E-score” value falls from 0.229 to 0.0185.

Going from ATCCGTTC to AATACAAT, the “PBM E-score” value falls from 0.0206 to 0.00406.

Going from AACGGTGA to CAAAACGA, the “PBM E-score” value rises from 0.0551 to 0.103.

Compared with ATGAGATC, CAAATTAA is lower in “PBM E-score” value: -0.0692 for the first, -0.164 for the second.

Compared with AAGTGGAG, TCGATAGA is lower in “PBM E-score” value: 0.0941 for the first, -0.095 for the second.

First: TCGTTAAA
Second: CACATCTC
The “PBM E-score” value of the first is lower: -0.303 for the first, 0.0374 for the second.

Compared with TCATCAAA, ACCCATCC is higher in “PBM E-score” value: 0.0877 for the first, 0.158 for the second.

First: GAGCAATA
Second: AGCACTTC
The “PBM E-score” value of the first is higher: 0.0174 for the first, -0.213 for the second.

Compared with AAGTGGGG, CATTAGTA is higher in “PBM E-score” value: -0.115 for the first, 0.106 for the second.

Going from GAATGACC to ACGCCTAC, the “PBM E-score” value falls from 0.00381 to -0.119.

First: AATAGTTA
Second: CCTTCCGC
The “PBM E-score” value of the first is higher: 0.0641 for the first, -0.212 for the second.

Going from CCTCCAAG to ACCGTTAT, the “PBM E-score” value rises from -0.0612 to -0.0316.

Going from ACTCATCA to AGGCACCA, the “PBM E-score” value falls from 0.32 to -0.0307.

Going from AATCGATA to AGAGCCCG, the “PBM E-score” value falls from 0.0646 to -0.0324.

Compared with ATTAACAA, GAACACCA is lower in “PBM E-score” value: 0.159 for the first, -0.0163 for the second.

Compared with CCCACGAG, ACGTGGAG is lower in “PBM E-score” value: 0.132 for the first, -0.0818 for the second.

Going from AGACTGTC to CCGGCTAC, the “PBM E-score” value rises from -0.0702 to 0.107.

Compared with ATGCCCTA, CCTCTTCG is higher in “PBM E-score” value: -0.316 for the first, -0.184 for the second.

Compared with CTTGCCTC, GCGATGGA is higher in “PBM E-score” value: -0.133 for the first, 0.0536 for the second.

Going from AGTATATA to CGCCCCAC, the “PBM E-score” value falls from 0.33 to 0.261.

Going from AGCTTGCC to AGGACTCC, the “PBM E-score” value rises from -0.265 to 0.129.

Going from AACGAGCC to CCACTAGA, the “PBM E-score” value falls from -0.00132 to -0.292.

Going from CATAAATA to CGGTGTAC, the “PBM E-score” value rises from -0.0195 to 0.0367.

Going from CTGAAAAC to ATACTGAC, the “PBM E-score” value rises from -0.287 to 0.181.
